Data from article PMC4336329 (PLoS ONE, 2015).
The campaign covered roughly 310,000 compounds. About 14,000 (4.5%) showed an effect of 50% or more. The effect is printed as a negative number. Some of the results follow.

Biological target: human ether-à-go-go-related gene (hERG) potassium channel (human, UniProt Q12809)
Assay: primary screen, population patch clamp on CHO cells stably expressing hERG
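Also: peak tail current of the secondary pulse compared with the same well before compound.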

Sequence of human ether-à-go-go-related gene (hERG) potassium channel (Q12809 whole entry, looked up): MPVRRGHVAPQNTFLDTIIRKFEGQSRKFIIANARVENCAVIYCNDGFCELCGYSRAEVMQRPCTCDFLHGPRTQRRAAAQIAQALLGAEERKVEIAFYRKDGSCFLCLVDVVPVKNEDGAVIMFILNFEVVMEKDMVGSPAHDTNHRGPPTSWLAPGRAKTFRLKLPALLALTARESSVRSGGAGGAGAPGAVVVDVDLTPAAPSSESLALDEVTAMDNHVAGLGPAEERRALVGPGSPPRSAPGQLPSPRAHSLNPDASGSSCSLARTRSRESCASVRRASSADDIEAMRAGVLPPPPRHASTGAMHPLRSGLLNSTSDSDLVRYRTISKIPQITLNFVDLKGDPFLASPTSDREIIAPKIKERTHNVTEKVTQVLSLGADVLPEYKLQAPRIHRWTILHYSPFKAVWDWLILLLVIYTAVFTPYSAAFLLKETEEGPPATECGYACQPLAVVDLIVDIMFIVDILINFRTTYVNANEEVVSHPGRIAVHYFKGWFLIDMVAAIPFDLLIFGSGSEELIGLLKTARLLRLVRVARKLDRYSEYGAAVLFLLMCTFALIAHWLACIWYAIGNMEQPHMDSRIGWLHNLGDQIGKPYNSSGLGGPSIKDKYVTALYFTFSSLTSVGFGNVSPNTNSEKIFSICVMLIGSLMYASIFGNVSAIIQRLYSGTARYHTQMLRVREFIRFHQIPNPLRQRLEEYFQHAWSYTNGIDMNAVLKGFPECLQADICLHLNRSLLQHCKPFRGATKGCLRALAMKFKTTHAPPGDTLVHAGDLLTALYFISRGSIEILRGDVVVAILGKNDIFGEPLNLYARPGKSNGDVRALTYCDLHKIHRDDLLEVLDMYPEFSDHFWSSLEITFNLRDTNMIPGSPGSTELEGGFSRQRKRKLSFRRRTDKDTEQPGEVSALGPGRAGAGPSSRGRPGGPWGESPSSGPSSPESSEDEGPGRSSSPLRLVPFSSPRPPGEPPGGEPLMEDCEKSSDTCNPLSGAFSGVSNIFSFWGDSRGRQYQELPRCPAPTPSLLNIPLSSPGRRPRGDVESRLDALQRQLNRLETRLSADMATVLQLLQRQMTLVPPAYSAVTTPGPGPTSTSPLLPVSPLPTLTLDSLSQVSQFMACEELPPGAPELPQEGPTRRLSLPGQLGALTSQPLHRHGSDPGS

| Compound | hERG current change (%, negative = inhibition) at 10uM |
| --- | --- |
| Cc1cc(C(=O)CSc2nc3ccccc3[nH]2)c(C)n1CC1CCCO1 (stereo not shown) | -12.5% |
| O=C(Cc1ccccc1)N1CCN(Cc2cccc(Br)c2)CC1.O=C(O)C(=O)O | -33.7% |
| O=C(NNS(=O)(=O)c1ccc([N+](=O)[O-])cc1)c1ccncc1 | 22.1% |
| Cc1ccc(-n2c(SCC(=O)Nc3ccc4c(c3)OCO4)nnc2-c2cccs2)cc1 | -21% |
| COC(=O)c1ccc(/C=C2/SC(=S)N(CCCC(=O)Nc3ccccn3)C2=O)cc1 | 15.4% |
| CCc1sc(C(=O)N2CCN(c3ncccn3)CC2)cc1Br | 4.48% |
| N#C/C(=C\c1cn(Cc2ccccc2)c2ccccc12)C(=O)NCc1ccco1 | 12.5% |
| Fc1ccc2c(c1)C(c1ccncc1)=NNC(c1ccccc1)=N2 | 11.1% |
| Cc1cc(C)cc(NC(=S)N2CCN(c3ncccn3)CC2)c1 | 13% |
| O=C(c1ccccc1Br)N1CCN(c2ccccn2)CC1 | 9.41% |
| CCn1nnnc1SCC(=O)N(C)C1CCS(=O)(=O)C1 (stereo not shown) | 1.37% |
| COc1ccc(-c2cc(=NC(CC(C)C)C(=O)O)c3cc(C)ccc3o2)cc1 (stereo not shown) | -56.5% |
| CC(=O)c1ccc(Oc2ncnc3sccc23)cc1 | 19.5% |
| COc1ccc(C[C@H]2CN3C(=NC[C@@H]3Cc3ccc(O)cc3)N2C[C@H](C)NC(=O)c2ccc(C)c(Br)c2)cc1 | -77.9% |
| COc1ccc(-n2c(C)nc3c(cnn3-c3ccccc3)c2=O)cc1 | -6.78% |
| COc1cc(C(=O)OCC(=O)N2CCC(Cc3ccccc3)CC2)cc(OC)c1OC | -16.9% |
| CCOc1ccc(C(=O)Nc2ccc3c(c2)C(=O)NC3=O)cc1 | 13.2% |
| O=C(COc1ccccc1)NCCSCc1ccccc1Cl | -13.1% |
| CN1CCN(C(=O)c2cnn3c(C(F)F)cc(C4CC4)nc23)CC1 | -9% |
| Cc1ccc(Cn2c(CN3CCOCC3)nc3c2c(=O)n(C)c(=O)n3C)cc1 | -20.6% |
| C=CCC(NCCCO)c1cccc(OC)c1OC.Cl (stereo not shown) | 6.88% |
| COc1cccc(CN2C(=O)CCC2(C)C(=O)NCCc2ccc(OC)c(OC)c2)c1 (stereo not shown) | 2.19% |

| Compound | hERG current change (%, negative = inhibition) at 10uM |
| --- | --- |
| COc1ccc(C(=O)NCC(=O)N/N=C/c2cccnc2)cc1OC | 15.2% |
| C=CCOc1ccccc1/C=N/NC(=O)Cc1ccccc1 | 11.8% |
| CCc1sc(N)nc1-c1ccccc1 | 2.5% |
| S=C(NCCc1ccccc1)Nc1ccc(Nc2ccccc2)cc1 | 26.5% |
| CCOC(=O)COc1ccc(N)cc1CC(NC(C)=O)(C(=O)OCC)C(=O)OCC | -72.7% |
| Fc1cc(F)cc(NC(=S)NN2CCOCC2)c1 | 1.56% |
| CCc1cccc(C)c1NC(=O)c1cccnc1 | 5.55% |
| CCOC(=O)Cn1c(-c2ccccn2)nc2ccccc21 | -1.69% |
| Cc1ccnc(SCC(=O)c2ccc(Br)cc2)c1C#N | -3.39% |
| N#Cc1c(-c2ccccc2)nc(-c2ccccc2)[nH]c1=O | 13.4% |
| O=c1[nH]c(COc2ccccc2)nc2ccccc12 | 17.7% |
| CCC(CC)C(=O)c1c[nH]c(C(=O)O)c1 | 19.6% |
| CC(C)=CCOc1ccc2ccc(=O)oc2c1 | -12.9% |
| COc1ccc(C(CNC(=O)c2oc3cc(C)c(Cl)cc3c2C)N2CCCCC2)cc1 (stereo not shown) | 16.3% |
| CCN(CC)CCCN(Cc1cc2cc3c(cc2[nH]c1=O)OCO3)C(=S)NCCCN(C)C | 2.52% |
| CCCn1c(N)c(N(CCOC)C(=O)c2cc(Cl)nc3ccccc23)c(=O)[nH]c1=O | 35.1% |
| CC(NS(=O)(=O)c1ccc(Cl)cc1)C(=O)Nc1ccc2c(c1)OCCO2 (stereo not shown) | -19.4% |
| CN(C)S(=O)(=O)c1cc(NC(=O)C[N+]23CCN(CC2)CC3)ccc1Cl.[Cl-] | 14.1% |
| COc1ccccc1/C=C/C(=O)OCCCN(C)C.Cl | -3.33% |
| CSCCC(NC(=O)c1ccoc1C)C(=O)O (stereo not shown) | -2.73% |
| O=C(NC1CCCCC1)C(c1cccs1)N(C(=O)c1ccccn1)c1ccccc1 (stereo not shown) | -0.682% |
| COc1cc(C2C(C#N)=C(N)Oc3cc(N(C)C)ccc32)cc2c1OCO2 (stereo not shown) | -6.32% |

| Compound | hERG current change (%, negative = inhibition) at 10uM |
| --- | --- |
| CSCCC(NS(=O)(=O)c1ccccc1F)C(=O)NCc1cccnc1 (stereo not shown) | 13.7% |
| CCOc1ccc(Cl)cc1S(=O)(=O)N1CCN(c2ccc(F)cc2)CC1 | -32.9% |
| CN(Cc1cn(-c2ccccc2)nc1-c1ccc(F)cc1)C(=O)CCC(=O)O | 28% |
| FC(F)(F)c1ccc(Oc2ccc3c(C(F)(F)F)cc(C(F)(F)F)nc3n2)cc1 | 11.7% |
| COc1ccc(CCNC(=O)C2CC=CCC2C(=O)O)cc1 (stereo not shown) | 12.4% |
| CCCCC(=O)Nc1c2c(nn1-c1ccc([N+](=O)[O-])cc1)CS(=O)(=O)C2 | -27.9% |
| CCCCN(C)C(=O)C1CCN(c2ccc(S(=O)(=O)N3CCOCC3)cc2[N+](=O)[O-])CC1 | -53.9% |
| Cc1ccc(S(=O)(=O)N2CCN(C(=O)c3sccc3C)CC2)cc1 | -16.5% |
| CCOP(=O)(OCC)c1nc(-c2ccc(Cl)cc2Cl)oc1N1CCOCC1 | -26% |
| COc1ccccc1NC(=O)Nc1ccccc1SC | -0.488% |
| CC(Sc1nccn1C)C(=O)Nc1ccc(Cl)cn1 (stereo not shown) | 4.6% |
| COc1ccccc1Nc1nc(N)nc(CN2CC(C)CC(C)C2)n1 (stereo not shown) | -73.8% |
| CCNc1nc(SC)nc(N(C#N)CC(=O)OC)n1 | 4.32% |
| Cc1ccc2c(c1)c1nnc(SCC(=O)NC3CC3)nc1n2C | -3.21% |
| N#Cc1nc(-c2ccco2)oc1NCCc1ccccc1 | -5.59% |
| CCCNC(=O)C1(CC2CC(c3ccccc3)=NO2)CCN(C(=O)Cc2ccc(F)cc2)CC1 (stereo not shown) | -64.6% |
| COC(=O)C(Cc1ccc(O)cc1)NC(=O)C(C)Oc1ccccc1 (stereo not shown) | 3.89% |
| COc1ccc(-c2c(NC(=O)C(C)C)n(C)c3ccccc3c2=O)cc1 | 17.6% |
| Cc1ccc(N=Nc2c(O)n(CN3CCOCC3)c3ccccc23)cc1 | 3.48% |
| CNC(CC(C)C)C(=O)NC1C(=O)NC(CC(N)=O)C(=O)NC2C(=O)NC3C(=O)NC(C(=O)NC(C(=O)O)c4cc(O)cc(O)c4-c4cc3ccc4O)C(O)c3ccc(c(Cl)c3)Oc3cc2cc(c3OC2OC(CO)C(O)C(O)C2OC2C[C@](C)(N)C(O)C(C)O2)Oc2ccc(cc2Cl)C1O (stereo partly shown) | 9.61% |
| CC1CC(=O)N(CC(=O)N2CCCC2)c2ccccc2S1 (stereo not shown) | -6.91% |
| Cc1c(C(=O)NCc2n[nH]c(=S)n2-c2ccc(F)cc2)cccc1[N+](=O)[O-] | 8.64% |

| Compound | hERG current change (%, negative = inhibition) at 10uM |
| --- | --- |
| O=C1CCC(=O)N1N1C(=O)C2C3c4ccccc4C(c4ccccc43)C2C1=O (stereo not shown) | 13.1% |
| O=C(COc1ccccc1C(=O)Nc1ccccc1)NCCc1ccccc1 | 34.4% |
| Cc1cc(=O)n(CNC(=O)c2ccccc2)c(=S)[nH]1 | -4.16% |
| O=C(NCC(c1ccco1)N1CCc2ccccc21)c1c(F)cccc1F (stereo not shown) | -7.53% |
| Cc1ccc(S(=O)(=O)N(C)C)cc1NC(=O)CN1C(=O)NC2(CCCc3ccccc32)C1=O (stereo not shown) | -11.8% |
| COc1ccccc1NC(=O)Cn1c(CCC(=O)O)ccc1-c1ccc(C)cc1 | 3.61% |
| O=C(CCN1C(=O)COc2ccccc21)NCc1ccco1 | 4.1% |
| O=C(O)C(=O)O.OC(CN1CCCC1)Cn1ccc2ccccc21 (stereo not shown) | 17.6% |
| C1CCN(Cc2nnnn2CC2CCCO2)CC1.Cl (stereo not shown) | 22.1% |
| CC(=O)Cc1nsc(NC(=O)c2cc(-c3ccccc3Cl)oc2C)n1 | 13.5% |
| CCOc1cc(C(=O)Nc2ccon2)cc(OCC)c1OCC | -14% |
| O=C(CN1CCN(S(=O)(=O)c2ccccc2)CC1)Nc1ccc(Cl)c(Cl)c1 | -16% |
| CN1CCN(c2ccc(NC(=O)c3ccc(-c4ccc(Cl)cc4)o3)cc2)CC1 | 11.5% |
| CCOC(=O)C(NC(C)=O)(N1CCc2ccccc2C1)C(F)(F)F (stereo not shown) | 5.28% |
| O=C(c1ccc([N+](=O)[O-])cc1)N1C=CC(C(F)(F)F)=NCC1 | 7.28% |
| Cc1ccccc1C(=O)Nc1ccc2c(c1)OCCO2 | 6.96% |
| O=C(NCC1COc2ccccc2O1)C1CCCN(S(=O)(=O)c2cccc3nsnc23)C1 (stereo not shown) | -7.33% |
| COc1ccc(F)c(-c2nc(CN3CCC(c4ccccc4)CC3)c(C)o2)c1 | -39.7% |
| NC1=NC2(CCCCCC2)n2c(nc3ccccc32)N1 | -31.5% |
| O=c1c2ccccc2c(/C=N/NS(=O)(=O)c2ccccc2)c(O)n1-c1ccccn1 | 17.3% |
| Cc1cc(NC(=O)CSc2ncccn2)no1 | 18% |
| COc1cccc(-c2nnc(SCc3nc4ccccc4[nH]3)n2N)c1 | -15.6% |
